Reference: PubChem BioAssay AID1768 (National Center for Advancing Translational Sciences (NCATS), 2009)
Values joined by “and” are separate entries in the source; they are usually repeats but may differ in a detail not shown here. Equal entries are not always repeated. The whole screen tested about 270,000 compounds, of which about 620 (0.23%) were called active. The shares of active, inactive and inconclusive entries below differ from those in the screen. Calls come from the whole dose curve; as a rule, active = well fitted inhibition curve with a large enough effect in the polarisation, with a control signal flat (not every such curve was filed as active); inconclusive = small, poorly fitted or top-dose-only effect, or effect the other way, or a change in a side signal; inactive = no such curve, though single readings can be large or run the other way; the % refers to the polarisation. Potencies beside an inconclusive call are fits to weak or partial responses and may not hold up. A note “side channel” means that the fit belongs to a control or component signal, not to the main read-out.

molecular target: Menin (Homo sapiens) (UniProt O00255); test: qHTS Assay for Inhibitors Targeting the Menin-MLL Interaction in MLL Related Leukemias: Competition With Texas Red Labeled MLL-derived Mutant Peptide; conditions: fluorescence polarization; FP activity change, negative = inhibition: at 61.6 µM (top of the series); for FP activity change, negative = inhibition: % of control where 0% means no effect
UniProt O00255, sequence (O00255 whole entry, looked up): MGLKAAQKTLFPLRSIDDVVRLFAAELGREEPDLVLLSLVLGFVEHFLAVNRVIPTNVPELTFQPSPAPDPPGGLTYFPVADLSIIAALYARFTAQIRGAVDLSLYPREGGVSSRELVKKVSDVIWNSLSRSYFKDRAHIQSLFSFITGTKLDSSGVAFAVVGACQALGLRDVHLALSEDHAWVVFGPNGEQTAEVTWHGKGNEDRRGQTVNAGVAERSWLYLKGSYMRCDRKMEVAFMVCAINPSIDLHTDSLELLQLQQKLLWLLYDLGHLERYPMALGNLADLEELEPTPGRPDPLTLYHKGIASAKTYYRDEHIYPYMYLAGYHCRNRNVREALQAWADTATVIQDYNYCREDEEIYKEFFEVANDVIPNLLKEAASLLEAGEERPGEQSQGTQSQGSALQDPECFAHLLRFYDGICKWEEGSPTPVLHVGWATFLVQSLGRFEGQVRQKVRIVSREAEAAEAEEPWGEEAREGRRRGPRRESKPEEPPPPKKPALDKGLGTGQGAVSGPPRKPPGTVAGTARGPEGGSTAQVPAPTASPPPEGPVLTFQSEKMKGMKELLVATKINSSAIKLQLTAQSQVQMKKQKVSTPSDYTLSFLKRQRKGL
Potency is the fitted concentration of half-maximal effect; tags give direction and shape of the fitted curve or compound fluorescence and quenching.

SMILES | Potency | FP activity change, negative = inhibition
O=C(CNc1ccccc1Cl)c1ccc(Br)cc1 | inconclusive: 39.8 µM [inhibitor, single point] | –
Cc1cc(O)cc(O)c1C(=O)Cc1cscn1 | – | inactive: -1.1%
CN(C)c1ccc(-c2noc(-c3ccccc3O)n2)cc1 | inconclusive: 17.8 µM [quencher, side channel, single point] | –
NC(N)=N/N=C/c1ccc(OCc2ccccc2)cc1 | inconclusive: 3.16 µM [inhibitor, full curve] | –
Cc1cccc(NC(=O)CSc2nc(C)c(Cc3ccccc3)c(=O)[nH]2)c1C | inconclusive: 39.8 µM [inhibitor, single point] | –
O=S(=O)(Nc1ccc(O)c2ccccc12)c1cccs1 | inconclusive: 25.1 µM [quencher, side channel, partial curve] | –
CCOC(=O)N1CCc2c(sc(NC(=O)c3ccc(Cl)s3)c2C(N)=O)C1 | inconclusive: 35.5 µM [quencher, side channel, single point] | –
Cc1noc(C)c1-c1ccc2ncnc(NCc3ccc4c(c3)OCO4)c2c1 | – | inactive: -12.6%
COc1ccc(Nc2nnc(-c3ccncc3)s2)cc1Cl | inconclusive: 14.1 µM [inhibitor, partial curve, poor fit] | –
Cc1ccc(Sc2ccccc2CN(C)C)c(N)c1 | – | inactive: -0.233%
CCc1c(C)c2ccc(OCC(=O)OC(C)C)c(C)c2oc1=O | inconclusive: 12.6 µM [fluorescent, side channel, partial curve] | –
O=C(O)c1cccc(N/N=C/c2ccc(OC(F)(F)F)cc2)c1 | inconclusive: 12.6 µM [quencher, side channel, partial curve] | –
Cc1ccc(Nc2c(-c3ccccn3)nc3ccc(C)cn23)cc1 | inconclusive: 10 µM [fluorescent, side channel, partial curve] | –
CCO[C@@H]1OC(C(=O)N2CCN(Cc3ccccc3)CC2)=C[C@H](C2CC2)[C@H]1CCCO | inconclusive: 12.6 µM [fluorescent, side channel, partial curve] | –
O=C(Nc1ccc(N2CCOCC2)cc1)c1cc2ccccc2o1 | inconclusive: 25.1 µM [quencher, side channel, single point] | –
Oc1cc2ccccc2cc1-c1n[nH]c(=S)o1 | inconclusive: 28.2 µM [quencher, side channel, single point] | –
O=C1c2ccccc2C(=O)c2c(Nc3ccc(CCO)cc3)ccc(O)c21 | inconclusive: 4.47 µM [quencher, side channel, full curve] | –
O=S(=O)(Cc1ccccc1)c1nnnn1C1CCCCC1 | – | inactive: 1.48%
Oc1ccc(N2CCN(c3ncnc4sc(-c5ccccc5)cc34)CC2)cc1 | inconclusive: 12.6 µM [quencher, side channel, partial curve] | –

SMILES | Potency | FP activity change, negative = inhibition
O=C1c2ccccc2C(=O)c2c(O)c(O)cc(O)c21 | inconclusive: 17.8 µM [fluorescent, side channel, partial curve] and inconclusive: 14.1 µM [fluorescent, side channel, partial curve] | –
CSc1ccccc1C(=O)NC1CCCN(Cc2ccccc2F)C1 (stereo unspecified) | inconclusive: 35.5 µM [inhibitor, single point] | –
Cc1[nH]n(-c2ccccc2)c(=O)c1N=Nc1ccccc1C(=O)O | inconclusive: 17.8 µM [quencher, side channel, partial curve] | –
CCOc1ccc(NC(=O)Cn2c(=O)n(CCCC(=O)NC3CCN(Cc4ccccc4)CC3)c(=O)c3ccccc32)cc1 | inconclusive: 12.6 µM [inhibitor, partial curve] | –
OC1CCCN(CC(O)COC(c2ccc(F)cc2)c2ccc(F)cc2)C1 (stereo unspecified) | inconclusive: 11.2 µM [inhibitor, partial curve] | –
O=C(Nc1ccc2c(c1)nc1n2CCSC1)c1ccco1 | inconclusive: 17.8 µM [quencher, side channel, partial curve] | –
COc1ccc(-c2csc(Nc3ccccn3)n2)cc1 | inconclusive: 14.1 µM [quencher, side channel, partial curve] | –
FC(F)(F)c1cccc(-c2cc(C3CCNCC3)[nH]n2)c1 | inconclusive: 14.1 µM [inhibitor, partial curve] | –
CCN1/C(=C/c2ccc3cc(C)ccc3[n+]2CC)Sc2cc(C)ccc21 | inconclusive: 15.8 µM [fluorescent, side channel, partial curve] | –
COc1ccc(OC)c(NC(=S)N(CCc2c(C)[nH]c3ccccc23)Cc2cccs2)c1 | inconclusive: 10 µM [quencher, side channel, partial curve] | –
CC(=O)Nc1ccc(S(=O)(=O)Nc2cccc(-c3nc4ccccc4o3)c2)cc1 | inconclusive: 20 µM [quencher, side channel, single point] | –
O=C(NCC1CCCO1)C1CCCN(S(=O)(=O)c2ccc(Cl)cc2)C1 (stereo unspecified) | inconclusive: 35.5 µM [quencher, side channel, single point] | –
Cc1c(NC(=O)Nc2ccc(C#N)cc2)c(=O)n(-c2ccccc2)n1C | inconclusive: 39.8 µM [inhibitor, partial curve] | –
COc1ccc2nc(NC(=O)c3ccccc3-c3ccccc3C(=O)O)sc2c1 | inconclusive: 25.1 µM [quencher, side channel, single point] | –
CCN1CCN(C(c2nnnn2Cc2ccc3c(c2)OCO3)C(C)C)CC1 (stereo unspecified) | – | inactive: 5.35%
O=c1oc2cc(O)ccc2cc1-c1ccc(F)cc1 | inconclusive: 39.8 µM [quencher, single point] | –
Cn1cc(/C=N/NC(=O)c2cccc([N+](=O)[O-])c2)c2ccccc21 | inconclusive: 14.1 µM [quencher, side channel, single point] | –
O=S(=O)(Nc1ccc(-c2nc3cccnc3s2)cc1)c1cccs1 | active: 22.4 µM | –
Cn1ncc(N=Cc2c(O)ccc3ccccc23)c1C(=O)Nc1cccc(Cl)c1 | inconclusive: 10 µM [quencher, side channel, partial curve] | –

SMILES | Potency | FP activity change, negative = inhibition
O=C(O)c1ccc2c(c1)C(=O)N(c1cccc(-c3nc4ccccc4s3)c1)C2=O | inconclusive: 17.8 µM [quencher, side channel, partial curve] | –
O=C(CNc1ccc2ccccc2c1)N/N=C/c1ccc(OC(=O)/C=C/c2ccco2)cc1 | inconclusive: 17.8 µM [quencher, side channel, partial curve] | –
CCOc1ccc2nc(NC(=O)CN3CCC(n4nnc5cc(F)ccc54)CC3)sc2c1 | inconclusive: 0.708 µM [inhibitor, partial curve, poor fit] | –
CCOC(=O)N1CCN(C(=O)c2ccccc2N(Cc2ccccc2)S(=O)(=O)c2ccc(OC)cc2)CC1 | inconclusive: 1.58 µM [fluorescent, side channel, full curve, poor fit] | –
O=C(Nc1ccc(S(=O)(=O)Nc2nccs2)cc1)c1cc(-c2ccccc2)nc2ccccc12 | inconclusive: 7.94 µM [quencher, side channel, full curve, poor fit] | –
COc1ccc2[nH]c(C(=O)N(C)Cc3ccccc3)c(C)c2c1 | inconclusive: 3.55 µM [inhibitor, full curve, poor fit] | –
COc1ccc(-c2csc(N(CCCN(C)C)C(=O)c3ccc(C(C)(C)C)cc3)n2)cc1 | inconclusive: 7.94 µM [fluorescent, side channel, partial curve] | –
Cc1cnc(CNc2ncnc3ccc(-c4ccc(N(C)C)cc4)cc23)cn1 | inconclusive: 25.1 µM [inhibitor, partial curve] | –
COc1cc2c(C(=O)c3ccccc3)c3c4c(cc(OC)c(OC)c4c2cc1OC)CCN3C | inconclusive: 31.6 µM [quencher, side channel, partial curve] | –
COC(=O)C1=C(C)N=C2SC(C)C(=O)N2C1/C=C/c1ccccc1OC (stereo unspecified) | inconclusive: 39.8 µM [inhibitor, partial curve] | –
C/C(=N\Nc1ccc(C(=O)O)cc1)c1ccc(Cl)s1 | inconclusive: 28.2 µM [quencher, side channel, partial curve] | –
N/C(=N\OC(=O)Cc1ccccc1[N+](=O)[O-])c1cccc(Br)c1 | inconclusive: 22.4 µM [quencher, side channel, single point] | –
Cc1ccc(Nc2nc(-c3ccccc3)c(CC(=O)O)s2)cc1 | inconclusive: 39.8 µM [quencher, side channel, single point] | –
CCc1ccc(CNC(=O)C2CCCN(S(=O)(=O)N3CC(C)CC(C)C3)C2)cc1 (stereo unspecified) | inconclusive: 0.631 µM [inhibitor, full curve, poor fit] | –
CCOc1cc(/C=N/Nc2cccc(C(=O)O)c2)ccc1OC(=O)c1ccccc1 | inconclusive: 8.91 µM [quencher, side channel, partial curve] | –
CC(C)C[C@H](NC(=O)c1nc[nH]c1C(=O)NCCCCCNC(=O)OC(C)(C)C)C(=O)OCc1ccccc1 | inconclusive: 3.16 µM [fluorescent, side channel, full curve] | –
CCOC(=O)c1cccc(NC(=O)C2CCN(c3ncnc4c3nc3n4CCCCC3)CC2)c1 | – | inactive: -10.2%
Cn1cc([N+](=O)[O-])c(C(=O)Nc2ccc(C3CCCCC3)cc2)n1 | inconclusive: 22.4 µM [quencher, side channel, partial curve] | –
